Data: PubChem BioAssay AID1963576 (National Center for Advancing Translational Sciences (NCATS), 2024)
Screen size: about 46,000 compounds; about 60 (0.1%) were called active. Roughly 3% stayed inconclusive and do not appear here. The call rests on the fitted dose curve; in most records, active means well fitted inhibition curve with a large enough effect; inconclusive means small, poorly fitted or top-dose-only effect; inactive means no such curve, though single readings can be large or run the other way. This is one part of the list.

Assay: Primary qHTS assay for Inhibitors of ovarian cancer metastasis using an organotypic tumor microenvironment (TME) model. Further: nearly all actives have a fitted effect of over 65% in size.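 On activity change, negative = inhibition: plate controls were DMSO wells for no effect and tomatine positive control wells for full effect.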
Details: SKOV3ip1-GFP adhesion/invasion on 3D omental model, fluorescence; series mostly up to 45.8 µM; activity change, negative = inhibition: at the top concentration
In short: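 qHTS, 4-pt dose (0.36-46 umol/L); SKOV3ip1-GFP, 1,200 cells/well, no FBS; primary omental fibroblast/mesothelial co-culture 48 h pre-grown; 2 h RT + 16 h 37 C; PBS wash, 4% PFA; GFP count 488/509 nm.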

Structure (SMILES)	activity change, negative = inhibition	outcome
O=C(CSc1nc(-c2ccc(F)cc2)[nH]c1-c1ccc(F)cc1)Nc1ccc2c(c1)OCO2	inactive: -1.75%	
O=C(Cc1ccc(-c2ccccc2)cc1)NCCS(=O)(=O)N1CCN(c2ccccc2)CC1	inactive: -29.7%	
CCOc1cc(C(=O)NCC(c2ccc(N(C)C)cc2)N2CCOCC2)cc(OCC)c1OCC (stereo unspecified)		inactive
COc1ccc(NC(C)=O)cc1NC(=O)CN1CCN(c2ccc(F)cc2)CC1	inactive: 3.17%	
O=S(=O)(c1cccc2ccccc12)N1CCN(c2ccc(Cl)c(Cl)c2)CC1		inactive
O=C(NCCCN1CCOCC1)c1ccc2c(c1)N(Cc1cccc(Cl)c1)C(=O)c1ccccc1S2	inactive: -20.1%	
Cc1cc(Nc2cccc(C(F)(F)F)c2)nc2ccc(NC(=O)c3cccc(Cl)c3)cc12	inactive: -1.77%	
O=C(Cn1cc(S(=O)(=O)c2ccccc2)c(=O)c2cc(Cl)ccc21)Nc1ccc2c(c1)OCO2	inactive: 6.06%	
COc1ccccc1NC(=O)C1=C(C)Nc2nc3ccccc3n2C1c1cccc(OC)c1OC (stereo unspecified)		inactive
Cc1ccn2c(=O)cc(COc3cccc(NC(=O)Nc4cccc(Cl)c4C)c3)nc2c1	inactive: 0.112%	
Cc1ccc(CNC(=O)c2ccc(CS(=O)Cc3cccc(Cl)c3)o2)cc1 (stereo unspecified)	inactive: 5.18%	
COc1ccc(-c2cc(C(F)(F)F)nc(SCC(=O)NCC(C)C)n2)cc1OC		inactive
CCCCN(CCCNC(=O)c1cc(Nc2ccc(OC)c(OC)c2)nc2ccccc12)c1ccccc1	inactive: -3.05%	
CC1CCCN(S(=O)(=O)c2ccc3c(c2)c(=O)nc2ccccn23)C1 (stereo unspecified)	inactive: -9.33%	
Cc1ccc(-c2cn3c(n2)sc2cc(C(=O)NCCCc4ccccc4)ccc23)c(C)c1	inactive: -3.44%	
CCOc1ccc(CNCc2c(C(=O)O)c(C)n(Cc3c(F)cccc3Cl)c2C)cc1OC	inactive: 0.9%	
Cc1ccccc1Nc1c(-c2cccnc2)nc2ccc(Cl)cn12	inactive: 0.238%	
CCc1nn2c(=O)c(S(=O)(=O)Nc3ccc(Cl)cc3)c(C)nc2s1		inactive
COc1ccc(C2=C(Nc3ccc(C)cc3C)c3ccccc3C2=O)cc1	inactive: 0.729%	
CCCCN(C)CCNC(=O)CN1C(=O)CSc2ccc(S(=O)(=O)N3CCOCC3)cc21		inactive
CCc1cccc(NC(=O)CN(C)S(=O)(=O)c2ccc3c(c2)CCCN3C(C)=O)c1	inactive: 0.475%	
COc1ccccc1-c1noc(-c2ccc(NCC3CCCO3)c([N+](=O)[O-])c2)n1 (stereo unspecified)	inactive: -17.2%	
Cc1cc(C)c(S(=O)(=O)NCC(c2ccc(N(C)C)cc2)N2CCOCC2)c(C)c1 (stereo unspecified)	inactive: -8.57%	
Cc1ccc2oc(=O)n(CCCOc3ccccc3Cl)c2c1	inactive: 1.97%	
CCOC(=O)c1cnc2c(C)c(Cl)ccc2c1Nc1ccc(N2CCOCC2)cc1	inactive: -7.13%	
CC(CCc1ccccc1)NC(=O)Cn1c(=O)nc(-c2ccccc2)c2ccccc21 (stereo unspecified)	inactive: -0.358%	
